The record followed here is article PMC10726135.

The list shows a part of the results. At the low end of the ranking the order means little. Measured with an extract: partners may take part in the binding.

The test has as its target T1, HNF4alpha2 (COS-7 nuclear extract) (UniProt P41235).
T1 sequence: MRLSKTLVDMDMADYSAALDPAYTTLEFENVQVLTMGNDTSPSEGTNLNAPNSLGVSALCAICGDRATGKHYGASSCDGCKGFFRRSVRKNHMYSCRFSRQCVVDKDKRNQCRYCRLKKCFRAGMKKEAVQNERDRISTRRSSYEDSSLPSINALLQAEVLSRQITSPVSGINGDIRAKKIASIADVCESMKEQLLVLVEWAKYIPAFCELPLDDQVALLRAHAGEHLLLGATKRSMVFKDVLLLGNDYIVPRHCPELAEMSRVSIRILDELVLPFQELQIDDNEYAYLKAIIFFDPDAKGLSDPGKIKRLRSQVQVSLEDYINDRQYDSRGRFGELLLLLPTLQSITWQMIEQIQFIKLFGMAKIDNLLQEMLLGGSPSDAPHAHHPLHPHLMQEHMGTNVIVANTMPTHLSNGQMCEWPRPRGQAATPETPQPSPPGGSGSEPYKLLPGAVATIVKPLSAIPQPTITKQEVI
As to the kind of experiment: protein-binding microarray. As to conditions: COS-7 nuclear extract on double-stranded Agilent 4x180k PBM; binding buffer, salt, pH and temperature not given; high values mean tight binding; double strand, one strand shown; sequences stand for … in …GCCTAGGGAGATTAGAGTATCGGTCGA
Regarding GCCTAGCACAGTGCCTGGCATGTGATAGGC, the binding signal (log2 normalized intensity) is -1.12.
Regarding TCAGTTTCTGAGAGTGGCAAGCAGGAGCTG, the binding signal (log2 normalized intensity) is -1.2.
Consider TCCTCACAGTGCAGCACAGCAGCTGACAGA, for which the binding signal (log2 normalized intensity) was -1.13.
As for TAGTGTGTCAGGGAAGGCTAGCATTCCTGC, the binding signal (log2 normalized intensity) is -1.02.
As to CAGTCAGACACGCCTTGCACAAATTTCAGA, the binding signal (log2 normalized intensity) was -1.06.
As to ACTTTATATTCCTTTGTATCTGTACCTTAA, the binding signal (log2 normalized intensity) worked out at 2.1.
Turning to GGCCTTTACCCCTTGAGTTTGAACTTTGAC, the binding signal (log2 normalized intensity) amounted to 6.48.
In the case of AAGGTCGTGTGCTTATCACATCTATCTGCC, the binding signal (log2 normalized intensity) is -0.0176.
As for TCATTGAGCCCTCCCCTTGTCTGATAAGAT, the binding signal (log2 normalized intensity) was 2.66.
Turning to AAAGGTCACTTCTGTTCATTGATAAAGGGT, the binding signal (log2 normalized intensity) amounted to 2.42.
With GGGCGCCTCCCGGAGGACCCGACCGGAGAG, the binding signal (log2 normalized intensity) was -1.11.
For GGACTAGTAGAGTGGGGAGGTAGGGCAAGA, the binding signal (log2 normalized intensity) is -1.28.
The same measure for GAAACATTTTACTCACCCCTTGCTGAGTGG: 1.82.
Turning to CCCAGGGAGAGCTGGACTTTCATCTGAGTC, the binding signal (log2 normalized intensity) stood at 2.92.
For the sequence GGTGAAAGATAAGGGCTAGTTCATTAAACA, the binding signal (log2 normalized intensity) is -1.11.
Regarding TCAAAAGCTGTGTGCTCCTGTAGAATGACC, the binding signal (log2 normalized intensity) came out at 2.33.
Turning to ACACTGATACAGCATGGCCCAGGGACTCAG, the binding signal (log2 normalized intensity) was -1.25.
Consider TTAAGAACTGGAGTAAAGGTCACTCTTGCT, for which the binding signal (log2 normalized intensity) amounted to 3.15.
As to CACTGATAACATGAGGATACTGATAACATG, the binding signal (log2 normalized intensity) is 0.0281.
As to GCTAATGAGATAATGCTGGTAAAGCACTTT, the binding signal (log2 normalized intensity) is 0.779.
ATGGAATTTAATTAGCTTCTGTTCAGGAGT: the binding signal (log2 normalized intensity) was found to be 0.684.
The same measure for GCTGTGTACTTTGAACTGAAGGATATTGGC: 3.57; for CTCAGAGTCTGTGGAGACACTGCCAGTGTC: -0.553.
Regarding CAGTGATCTTATCGCCTAGTACTCCTGCCC, the binding signal (log2 normalized intensity) came to 0.389.
In the case of GGGGAGGTGGGAAAAGAAATGTAGTGACAG, the binding signal (log2 normalized intensity) was -0.838.
The same measure for GCATGACCTCAACTCTCAGTTTGGCTCTTA: 0.114.
Turning to TCTAGATAAGTTTATTTACTTATGTTGTCC, the binding signal (log2 normalized intensity) stood at 1.48.
With CAAATTTGGGAGGGAAGAGGCAAGGAAAGA, the binding signal (log2 normalized intensity) was -1.15.
With TAGGCCTTTCCTGGGCCTTAAAGCATGACA the figure was -0.733.
On to TCATGAGTAGGTTTACTAAAGGAAGGGAGG, for which the binding signal (log2 normalized intensity) was -1.18.
Turning to ATGTGTGCTTTCAGGTGTGAACCCAGGCAA, the binding signal (log2 normalized intensity) is 1.86.
As for CATTGGAGGTCACCCTGTGTCAGCGACTGG, the binding signal (log2 normalized intensity) was -1.1.
With TGGAGATAACACACAGGCTCAACGGGTTAG the figure was -1.09; with CACCAGAAAAATGTACATGTGCAAAAGCAC, 0.628.
Regarding ACCCGTCCGCTTGATGCCTGTTGCTCAGAA, the binding signal (log2 normalized intensity) is -1.08.
With ACTTCTCTCGGCCTTAAGAGTCAAAGGGCA, the binding signal (log2 normalized intensity) was 3.51.
Consider TTGGAATACATGGAATGCTCTCTCTCTTTT, for which the binding signal (log2 normalized intensity) came to 0.781.
The same measure for GGGGCAGAGTGAGCAGCACTTTTGGAGTTT: 1.51; for TAGCCTTTTTGCCCACAGACTAGACCATCA: -1.11; for ACCACCTTCCCCCATCCCCAACAAAGCTCT: 4.7.
As for ACAGCGAGAGTCCTCTTGGTTTATGTTCAC, the binding signal (log2 normalized intensity) was 1.67.
As for AGTAGTTCTTCTGGTTAGTTTTTCAATGGC, the binding signal (log2 normalized intensity) came out at 1.34.
As for TGTTACCTTTGGACTGTCCTTTGCTAGATT, the binding signal (log2 normalized intensity) came to 3.5.
The same measure for CAATTTGATTTGTATGATCTTGGGTATATC: 1.75.
On to CCAGAATGTTCAAAAGTGTGTTGGTTTCCT, for which the binding signal (log2 normalized intensity) came out at 1.3.
In the case of AAGGTGGTTGCTGTTATCTTCATTTATAGA, the binding signal (log2 normalized intensity) was 1.23.
For TCAGGAAGGAATAAAAGGCTGTTCTGATGC, the binding signal (log2 normalized intensity) is -1.19.
For AGAAGAAACCTTTGCCCAACAGGATTAGTG, the binding signal (log2 normalized intensity) stood at 0.761.
For the sequence GAGTCTCCACTATGACCTGTGCTTTGCCAT, the binding signal (log2 normalized intensity) is 0.881.
Regarding CCCGCCTAACCTTGAGGAGCCCTATCCGCA, the binding signal (log2 normalized intensity) was -1.07.
With TGCTCCACGCAAACACAAAAGGATCACAGT the figure was -1.15; with TTGTCCAGCAGACACGGGCAGGTGAGAGGG, -1.07; with AGTCTAGATAATCTAAAGCCGAAAGAGGGT, -1.01.
Regarding TAGACACTGGGGACTAGTAGAGTGGGGAGG, the binding signal (log2 normalized intensity) was -1.07.
For GTGGTGGTTCTTGTTTCATTGCACAGTTAC, the binding signal (log2 normalized intensity) came out at 2.04.
Regarding GCTCGGCCCCAGTCCCCCGGACCAGGCCGG, the binding signal (log2 normalized intensity) was 2.88.
For ACAGCCTTTTGAGTTTCTACCATAGACCCT, the binding signal (log2 normalized intensity) was determined as 1.05.
Consider TCAGCCTGGCTGTGTAGACATCACCTGCTC, for which the binding signal (log2 normalized intensity) was -0.975.
The same measure for GGCCTCTCAGGTCAGGGAAGACTGATAAGA: -1.07.
For TAGGCATTGTCTTGAAAGATAAAGTGTCTC, the binding signal (log2 normalized intensity) is 0.294.
With TTTACTTAACCTTTGATCATATGCATTTCC, the binding signal (log2 normalized intensity) came out at 4.18.
For TCATTTTTTTGATTACCTTAGGGGGAAACA, the binding signal (log2 normalized intensity) turned out to be 0.796.
On to CTGATATAGAACACTTGTACATACTTTTGG, for which the binding signal (log2 normalized intensity) stood at 1.5.
With GTCTGAATTCTAGTCCTATCACTGTCTAGC the figure was -1.1; with TGTGATAGGCATGCAAACTTTGTTTAATGA, 2.47.
With ACTGCCTCTTACAACGAGGTGCCAGAAACC, the binding signal (log2 normalized intensity) was -1.07.
With ACTGCCCTTTGGTGCCTCTTTTTTCTTGTT the figure was 2.16; with TGCATAATGGAGCAAAGGTCATCCTGGGCT, 4.87.
On to AGAGCAATCATGGGCCCACAGATGATCAAA, for which the binding signal (log2 normalized intensity) was -0.805.
Regarding GGCGCAGTCCTCTCTCGCGAGAGCCGAAGT, the binding signal (log2 normalized intensity) is -1.15.
With ACAAAAACCAAAGGTCACTTCGCATTTCCA, the binding signal (log2 normalized intensity) amounted to 3.42.
With TAAAAGGTCCAGAGTTCACTGCAGGCTGGG the figure was 2.77; with ACCTTTAAGCCTATAGTTTCTGTTTTGATC, 2.12.
